Measurements reported in the supplement of paper PMC11417369.
Some of the results follow.

test system: PfAP2-HC AP2 domain (GST-tagged); test: gcPBM binding intensity (ln(normalized median fluorescence intensity)); higher = stronger DNA binding
Method in brief: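 GST-fused DNA-binding domains of P. falciparum, expressed in E. coli, were applied at about 25 μg on average for 1 h to an Agilent 4 × 180k array of primer-extended double-stranded 36-bp intergenic genomic probes and negative controls. Binding intensity is the highest Masliner-normalised natural-log median intensity across replicate spots of either probe orientation, measured with Alexa488 anti-GST antibody and a 488 nm scan.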

| Sequence | gcPBM binding intensity (ln) |
| --- | --- |
| TATACATATTTTATAGCACACAAATAATAATATGTA [CACACA_site8129] | 9.63 |
| CCAACTATATTATGAAGTACATATATATTATATATA [XGTACX_site5767] | 9.51 |
| AAACCTACATAACATACACACGCATATATATAATTT [CACACA_site8923] | 10.1 |
| ATATGGGTAATGAATTGTACTCTTTCTTGTTGTTCT [XGTACX_site4487] | 9.68 |
| TGTAATAAATAGTACACACACACATATTTATATATC [CACACA_site6770] | 10.8 |
| GTATAATTTTCGTATTCACACAAGAATATACTACAT [CACACA_site4877] | 9.77 |
| AATATATGTATGTACGCATGTATGTATCTATGTATT [TGCATGCA_site389] | 9.76 |
| TTATAATTATATACATGTACATATAATACATATATA [XGTACX_site8904] | 9.46 |
| ATAATTATATATTTATGTACGCATAAATATTTATAT [XGTACX_site5765] | 9.59 |
| ACCCAATTTTAAAATGAACACACATGTTTTTCTTAC [CACACA_site8246] | 10 |
| TATTTATTGTGATACTACTATTATTTTATGATTAAA [CACACA_negctrl_site284] | 9.49 |
| TTATATTATTTTTAATGTACTTTTTATGAATACAAA [XGTACX_site689] | 9.54 |
| TATATATAACTTTATTGTACAAAATATTATGTATTC [XGTACX_site981] | 9.66 |
| TTGTTTTATTATTCGATGCACTACAGAAATATATTC | 9.62 |
| TATACAACTTTATGAAGTACAAAAAGTTCTATATAT [XGTACX_site3866] | 9.51 |
| AACTATATCATTTATTTTATTTTTTAAATACATTTA [CACACA_negctrl_site183] | 9.41 |
| GTATATTTATAGCCTTTATTATATTTAATATTATTA [TGCATGCA_negctrl_site26] | 9.71 |
| AGAAAAGTTTAATACAGTACATAAACAAAGTATAGG [XGTACX_site2386] | 9.79 |
| TATAATATTATATATAAACACACATACACATGTAAA [CACACA_site8631] | 9.94 |
| GTTATATTTTTTTATACACACTGGAATATATAAATA [CACACA_site4282] | 9.56 |
| TTTATTATTTTTAGGAGTACACAAAATAAAACAAAT [XGTACX_site8841] | 9.51 |
| GAAAATACGTTTAATCGTACATATATATAATATATA [XGTACX_site4243] | 9.6 |
| ACAAGTTTTTTTTTATCACACACAAAAAAAAAAATA [CACACA_site8377] | 9.85 |

| Sequence | gcPBM binding intensity (ln) |
| --- | --- |
| TATTTACCCTCATGTTGTACTTTTCATTCATTTTAT [XGTACX_site7794] | 10 |
| ATTAATTATAATGTATGTACATAACTTTTTTATATT [XGTACX_site5784] | 9.75 |
| AAAATCATTCCAAAGACATGCATTTTGCAAATAAAA [TGCATGCA_site461] | 9.51 |
| TATATTATATACCATTGTACATATAATATAGGTTCT [XGTACX_site7047] | 9.56 |
| TCTATAAAGGAATATACACACATATATAAATATGTA [CACACA_site6332] | 9.71 |
| AAAAACAGAAATGTAACACACAAAAATTCTATTTAT [CACACA_site4026] | 9.86 |
| TTTTGTTATAAATAATGTACATATTTATTTAAAATT [XGTACX_site6610] | 9.48 |
| TATAAAAATGTGCACACACACACATATTTATATTTA [CACACA_site6826] | 10.5 |
| AACCTTTATATGTAAAGTACAAAAAAGAGTAAAAAA [XGTACX_site5506] | 9.61 |
| TATATATTTGTAACGGGTACGTAGGTGTATATTCCA [XGTACX_site6028] | 9.71 |
| AGCCACGTGGTATATACACACATAATCAAATAAAAT [CACACA_site9364] | 10.2 |
| GAAACGATTTAATACACACACGTATTATAGATATAT [CACACA_site6666] | 10.1 |
| AATAAGCATATACAAACATGCATACATATAAATAAA [TGCATGCA_site338] | 9.8 |
| TTTTTTTTTTTTTTGACACACATAATAAAATACAAA [CACACA_site3080] | 9.35 |
| ATAAAACAACACACTTGTACTAATTTTTTTTTTTTT [XGTACX_site8377] | 9.75 |
| TAATTTATAAGGTATAACAACAATTGCATCTATCAC [XGTACX_negctrl_site314] | 9.61 |
| TGAATAAATAGACACACACACATATATAAATATGTA [CACACA_site6159] | 10.7 |
| AAATATTTTAACGAGAGTACATAATAACAATTTATG [XGTACX_site3865] | 9.64 |
| GAAAGAATAAAATTTACACACATATATAAATACATA [CACACA_site5273] | 9.87 |
| AAAAAAAAAAAATACACACACACATATATATATATA [CACACA_site731] | 10.2 |
| TTTTTTTTTTTTTATTGTACTAAATTATAGAGGGGA [XGTACX_site2609] | 9.18 |
| TAGTTGCACATGTATACACACAAAAAATATTTTATG [CACACA_site475] | 9.87 |
| AAAGAAAGGAATACGACACACAAAAAAAAAATATAT [CACACA_site1934] | 10.2 |

| Sequence | gcPBM binding intensity (ln) |
| --- | --- |
| AATAAATATAGGTACACACACAAATATGTACATATC [CACACA_site6976] | 10.2 |
| AAGTGGTTATAATCAACACACGTGGAATGTACTTTA [CACACA_site3700] | 9.75 |
| AAGAAACCATAATATGCATGCACATATTAATAAATA [TGCATGCA_site693] | 9.75 |
| TTATAATTTTAATGTGCACACAATTAAAATATTATA [CACACA_site5172] | 9.61 |
| TTTTGTTTATGTGTGCATTATATTATATTTTTTATT [TGCATGCA_negctrl_site146] | 10.1 |
| TATTGACAAAAAAAAAAAAGGTAAAAAAGAAAGAAA [GTGCAC_negctrl_site418] | 9.43 |
| TATAAATAAATATACACACACACATATAAATATGTA [CACACA_site6504] | 10.4 |
| TGTAAGAAATTGAGCGCACACATACATCTGTGGGAT [CACACA_site4945] | 10 |
| CTACATACAAGAATTAAACACACACTAATTATAAAT [CACACA_site8986] | 10.4 |
| CCTCAATATTCACATACACACAATATCATCGAAGTA [CACACA_site1676] | 9.73 |
| TTCTTTTTTTTTCTGGGTACATATATTCCAATCACT [XGTACX_site4770] | 9.79 |
| TTATAAAAGACAAAAGTGCATATATACATATGTATA | 9.72 |
| AATATAATTATATGTGGTACAGAAATAATATAAAAT [XGTACX_site2366] | 10.1 |
| AAATAAATAAATTAACGTACATAATAACATTAATAT [XGTACX_site8567] | 9.71 |
| ATATATATATATGTATGTACACATATTTTTTAACTT [XGTACX_site431] | 9.81 |
| TATATATATATTATTAGTACTTATTTTTTTTCATAT [XGTACX_site1279] | 9.72 |
| TGTAAAACCTCCTACACACACCAATTAACTATTCTA [CACACA_site7074] | 10.1 |
| TTATATTATAGACACACACACAAAAAAAAAAAAAAA [CACACA_site3816] | 10.1 |
| TATAACTTTTATAGGTGTACCCAATATTATATATAG [XGTACX_site7673] | 9.54 |
| CCATCTTTTTTACGATGTACAAGTATAAGGTATACG [XGTACX_site2697] | 9.43 |
| TTTATATGTTTTGTATTTTTAATAAATATTTTATTA [TGCATGCA_negctrl_site20] | 9.62 |
| TATATATAATAAGAAGGTACACGTAAGTAATAATTT [XGTACX_site934] | 9.91 |
| TTGAATTAAAAACATACATGCATATATATATATATA [TGCATGCA_site319] | 9.74 |

| Sequence | gcPBM binding intensity (ln) |
| --- | --- |
| TTATAAAATGGGCAAACACACACAAAAAAAAGATAT [CACACA_site8476] | 10.9 |
| AATAAATTACTATGTACACACATAAGAGTATAAATA [CACACA_site6940] | 9.91 |
| AAAAAGTTACATGGTGGTACTCAAATAAAATATTCT [XGTACX_site5993] | 9.62 |
| ATTATCCATGCATTTACACACACACTAAAAAAAATT [CACACA_site7848] | 10.1 |
| ATGTATATATATTTGTGTACATATTTAGGAAATAAA [XGTACX_site2904] | 9.78 |
| AATTAAATTTATATGAATGTCAATTATATTGTTATA [XGTACX_negctrl_site261] | 9.52 |
| TTTATATGTGAAAAAAGTACAAGGAAAAAATTAAAC [XGTACX_site7269] | 9.72 |
| TATTATGTTATATATTGTACATGTTTATTGAAACAA [XGTACX_site5605] | 9.31 |
| TTTTTTTTAGTATGAACACACATATATATTATAAAA [CACACA_site2935] | 9.43 |
| TATTAACAAAATATAGCACACATAAATATATATTTA [CACACA_site8005] | 9.73 |
| TTTTTTTTTTTTTGATGTACATAAATTAAGAATTAT [XGTACX_site7789] | 9.46 |
| AATATATCTTTTTACGGCAACCATATTTTTCCCATT [CACACA_negctrl_site963] | 9.8 |
| TGTCATATTATAAATTGTACAAATAGTATAATTATT [XGTACX_site581] | 9.54 |
| ATTTTATCTTTAAACTGTACGTATTAATATGTAGAA [XGTACX_site3077] | 9.52 |
| ATAAAAATATTATAAGCACACATATATATATATATA [CACACA_site8781] | 9.61 |
| AGTATACATATATATACACACATATATATATATATA [CACACA_site300] | 9.8 |
| TGTGTATTTATAAATACACACCAAATGTTAATATAT [CACACA_site6904] | 9.68 |
| GTAAAATGATATAAATGTACATAATATATATATGTC [XGTACX_site4049] | 9.83 |
| AATTTTTTTTTTAGACGTACAAGAAAAAACAAAAAA [XGTACX_site4990] | 9.49 |
| AACTATAAAAATTTTACACACTGTTTTTAAATAATG [CACACA_site5928] | 9.75 |
